Measured values as given in PubChem BioAssay AID1347428 (National Center for Advancing Translational Sciences (NCATS), 2020).
Hit rate of the full screen: of about 91,000 compounds, about 290 (0.32%) were called active. This list was built around the results that the source calls inconclusive (neither active nor inactive); the mix of calls is not that of the screen. Calls come from the whole dose curve; as a rule, active = well fitted inhibition curve with a large enough effect; inconclusive = small, poorly fitted or top-dose-only effect; inactive = no such curve, though single readings can be large or run the other way. Where the call is inconclusive, the potency comes from a doubtful curve fit.

Biological target: Single-stranded DNA cytosine deaminase (Homo sapiens) (UniProt Q9GZX7)
Sequence of UniProt Q9GZX7 (Q9GZX7 whole entry, looked up): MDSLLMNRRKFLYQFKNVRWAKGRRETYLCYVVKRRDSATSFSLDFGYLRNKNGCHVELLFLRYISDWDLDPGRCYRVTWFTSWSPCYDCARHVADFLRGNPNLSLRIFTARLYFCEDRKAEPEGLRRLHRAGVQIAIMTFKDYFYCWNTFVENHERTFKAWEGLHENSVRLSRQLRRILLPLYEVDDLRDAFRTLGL
Experiment: Primary qHTS assay for inhibitors of Activation Induced Cytidine Deaminase (AID): AID signal; note: nearly all actives have a fitted effect of over 25% in size
Details: AID deamination FRET fluorescence, UDG-coupled, 4 h; activity change, negative = inhibition: at 115 µM (top of the series)
Source text: Assay Provider (PI) Patricia Gearhart Ph.D.
National Institute on Aging
National Institute of Health (NIH), Bethesda, MD
Assay Provider (PI) Rahul Kohli Ph.D.
Perelman School of Medicine
University of Pennsylvania, Philadelphia, PA
Activation-Induced Deaminase (AID) is a cytosine deaminase which converts cytosine into uracil within stretches of ssDNA. The presence of uracil in DNA initiates a cascade of mutagenic DNA repair to introduce point mutations and DNA double strand breaks. Specific targeting of AID to the immunoglobulin heavy chain loci (Igh) promotes mutagenesis in the antibody variable region for somatic hypermutation (SHM) or switch regions leading to class switch recombination (CSR). However, AID also plays a role in accumulating unnecessary mutations across the genome. Mis-targeting of AID results in the initiation of tumor development and leads to greater drug resistance among cancer cells when continually expressed. To identify an AID inhibitor, a small molecule library will be screened in collaboration with NCATS core facility at NIH. To confirm biological function, inhibitors will be examined in an in vitro murine B-cell activation assay and subsequent secondary validation screens. Top molecules will be further screened to identify inhibitory efficacy against a wild type primary splenocytes assay. Using these approaches, we hope to identify a small molecule with great efficacy and low toxicity for use as a molecular probe to further characterize AID's intricacies, or even as a therapeutic.
A FRET based analysis of cytosine deamination, was developed to identify potential inhibitors of AID catalytic activity. This screen has two signal output, Read 1 evaluates the AID inhibition response. The second readout (Read 2) evaluates UDG response and is uses as a counterscreen to exclude false positive inhibitors. Inhibition in AID and inactivity in the UDG signal is the desired outcome for this assay.
SEQUENCE No. (e.g., 1, 2, 3, etc.); […] (e.g., Cells, Incubation, Reagent, etc.); VALUE; DESCRIPTION
1a; Reagent; 3 uL; [4/3x] 1 uM AID/2.67 U/mL UDG
1b; Reagent; 3 uL; 2 U/mL UDG
1c; Reagent; 3 uL; 1 uM AID
2a; Compound; 46 nL; Follow-up plates (0.64 uM - 10 mM)
2b; Control; 46 nL; ATA ([…] - 10 mM)
3; Time; 10 min; incubation at room temperature
5; Time; 4 hr; incubation at room temperature
6; Reagent; 4 uL; [2x] 250 mM NaOH
7; Time; 15 sec; centrifuge at 1000 rpm
8; Time; 30 min; incubation at room temperature
9a; Detection; fluorescence (Read 1: AID); EnVision (PerkinElmer) plate reader, 540 excitation and 590 emission filters
9b; Detection; fluorescence (Read 2: UDG); EnVision (PerkinElmer) plate reader, 560 excitation and 665 emission filters
NOTES (numbers refer to sequence above)
1a; Reagents were dispensed in a medium-binding black solid-bottom Greiner plates (789176F) using a BioRptr liquid dispenser. Dispense 3 uL of [4/3x] 1 uM AID (provided by Kohli lab) and [4/3x] 2 U/mL UDG (NEB M0280L) into columns 1, 2, 5 to 48.
1b; Dispense 3 uL of [4/3x] 2 U/mL UDG into column 3.
1c; Dispense 3 uL of [4/3x] 1 uM AID into column 4.
2a; Compound (7-points [uM] (0.64; 3.2; 16; 80; 400; 2,000; 10,000; 20,000) double pin-transferred (Dip Factor = 2) using the Kalypsys (Wako USA) pintool equipped with a 1536 pinhead for a final concentration range of 7.32 nM - 114 uM.
2b; 10 mM Aurintricarboxylic Acid (Sigma A1895) (ATA, 8-point, n = 2, 1:2.5 dilution in column 2) double pin-transferred (Dip Factor = 2) using the Kalypsys (Wako USA) pintool equipped with a 1536 pinhead for a [final] range of 186 nM - 114 uM.
3; Room temperature incubation.
4; Dispense 1 uL of substrate mixture from the Kohli lab [4x] […] DJC20 and [4x] 250 nM DJC23 into columns 1 to 48 .
5; Room temperature incubation.
6; Dispense 4 uL of substrate mixture [2x] 250 mM NaOH into columns 1 to 48.
7; Centrifugation step to remove bubbles.
8; Room temperature incubation
9a; Fluorescence signal (column label AID) was read using the EnVision plate reader. […]
% is set by controls: 0 for no effect and ±100 for the full control effect; potency is the fitted concentration of half-maximal effect; tags give direction and shape of the fitted curve.

Compound	Potency	activity change, negative = inhibition
Cc1cccc(CN2CCC(CNc3ncnc4onc(-c5ccc(Cl)cc5)c34)CC2)c1	active: 20 µM	
C/C(=C/C(=O)C(F)(F)F)N1CCN(c2ccccc2F)CC1		inactive: -0.444%
CCOc1ccc2c(c1)c(=O)c(S(=O)(=O)c1ccc(C)cc1)cn2Cc1ccccc1Cl	inconclusive: 10 µM [inhibitor, full curve, poor fit]	
CC(=O)NC(Cc1c[nH]c2ccccc12)C(=O)N1CCN(S(=O)(=O)c2ccc(F)cc2)CC1 (stereo not given)		inactive: 3.01%
CCN1CCN(c2ncnc3c2cnn3-c2cc(Cl)ccc2C)CC1		inactive: 10.3%
CCOC(=O)c1cnc(N2CCN(c3ccc(OC)cc3)CC2)c2ccccc12	inconclusive: 2.82 µM [inhibitor, full curve, poor fit]	
Cc1cccc(Cn2c(Cc3ccccc3)nc3ccccc32)c1	inconclusive: 50.1 µM [inhibitor, partial curve, poor fit]	
COc1ccc(CCN2CCC(CNC(=O)c3cnn(-c4cccc(Cl)c4)c3C3CCN(C(=O)OC(C)(C)C)CC3)CC2)cc1	active: 35.5 µM	
O=C(c1ccc(-c2ccccc2)cc1)N1CCN(CC2CC=CCC2)CC1 (stereo not given)	inconclusive: 56.2 µM [inhibitor, partial curve, poor fit]	
Cc1ccccc1NC(=O)c1ccc(N(Cc2ccccc2)S(C)(=O)=O)cc1	inconclusive: 20 µM [inhibitor, full curve]	
CC(C)c1cccc(N/C=C/C(=O)c2ccc(Br)cc2)c1		inactive: 0.0699%
CC(C)(C)c1ccc(C(=S)NCCC2=CCCCC2)cc1		inactive: 7.62%
CC(=O)c1cccc(NS(=O)(=O)c2cccc(S(=O)(=O)c3ccc(Br)cc3)c2)c1		inactive: 11.8%
COc1ccc(-c2nc(CSCC(=O)N3CCN(c4ccccc4)CC3)c(C)o2)cc1	inconclusive: 44.7 µM [inhibitor, single point]	
C=C(Cl)COC(=O)c1ccc2c(c1)NC(=O)C(C)S2 (stereo not given)		inactive: -14.4%
Cc1ccc(NC(=O)c2c(NC(=O)C(F)(F)F)sc3c2CCCCC3)cc1	inconclusive: 79.4 µM [inhibitor, partial curve, poor fit]	
CC(=O)N1CCC(NC(=O)c2cc(C)nc3cc(F)ccc23)CC1		inactive: 9.52%
CCOc1ccccc1NC(=O)N1CCC2(CC1)Oc1ccccc1C(=O)N2Cc1ccccc1F	inconclusive: 22.4 µM [inhibitor, full curve]	
Cc1ccc(CCNC(=O)c2c(C)nn(-c3ccc(F)cc3)c2-n2cccc2)cc1	inconclusive: 20 µM [inhibitor, full curve]	
CN(C)S(=O)(=O)N(CC(=O)NCCSc1ccccc1)c1ccccc1		inactive: -5.46%
